Test: solvent given as SMILES

Row | Structure (SMILES) | absorption maximum (in CC(=O)N(C)C) | absorption maximum (in C1CCOC1) | absorption maximum (in C1COCCO1) | absorption maximum (in CCCCCC) | absorption maximum (in CCOC(C)=O) | absorption maximum (in CCOCC) | absorption maximum (in CS(C)=O) | absorption maximum (in CC#N) | absorption maximum (in CCCCCCCCCCO) | absorption maximum (in CCCCCCCCO) | absorption maximum (in CCCCCCO) | absorption maximum (in CCCCO) | absorption maximum (in CCO) | absorption maximum (in Cc1ccccc1) | absorption maximum (in ClC(Cl)Cl)
1 | C1=C/C2=C(\c3ccccc3)c3c[nH]c(c3)/C(c3ccccc3)=C3/C=CC(=N3)/C(c3ccccc3)=c3/cc/c([nH]3)=C(\c3ccccc3)C1=N2 | 699 nm | – | – | – | – | – | – | – | – | – | – | – | – | – | –
2 | CN(C)c1ccc2c(c1)Cc1ccccc1-2 | 312 nm | 310 nm | 310 nm | 303 nm | 307 nm | 305 nm | 316 nm | – | – | – | – | – | – | – | –
3 | COC(=O)c1ccc(-c2ccc(-c3nnc(-c4ccc(-c5nnc(-c6ccc(-c7ccc(C(=O)OC)cc7)s6)o5)cc4)o3)s2)cc1 | 341 nm | – | 344 nm | – | – | – | 350 nm | 338 nm | 336 nm | 334 nm | 340 nm | 337 nm | 333 nm | 345 nm | 345 nm

Source: the Deep4Chem optical property database
